In PubChem BioAssay AID1347417 (National Center for Advancing Translational Sciences (NCATS), 2020):
Screen size: about 120,000 compounds; about 5,300 (4.4%) were called active. The inconclusive results got no clear call from the source; some entries with a clear call stand among them for comparison. The call rests on the fitted dose curve; in most records, active means well fitted inhibition curve with a large enough effect; inconclusive means small, poorly fitted or top-dose-only effect; inactive means no such curve, though single readings can be large or run the other way. Potencies of inconclusive entries are doubtful fits and often do not repeat.

Experiment: qHTS Primary assay for Inhibitors of Plasmodium falciparum Dd2 growth in vitro; further: nearly all actives have a fitted effect of over 65% in size
Conditions: P. falciparum Dd2 growth, SYBR Green, 72 h; series mostly up to 28.9 µM
How it was run: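 Infected erythrocytes (Dd2, 0.3% parasitemia, 2.5% hematocrit final) are added to compound in RPMI-1640/Albumax II medium, grown 72 h at 37C in low oxygen, then lysed with saponin/Triton-X containing SYBR Green and read by fluorescence.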
Potency means the concentration at half of the fitted maximal effect; tags describe the fitted curve by direction and shape.

Row | Structure (SMILES) | Potency
1 | O=C(C[C@@H]1CCNC[C@@H]1Cc1cc(COc2ccccc2)on1)Nc1ccccc1 | inactive
2 | O=C(NC1CCCCC1)c1ccc2c(c1)N(Cc1ccc(Cl)cc1)C(=O)c1ccccc1S2(=O)=O | inconclusive: 12.6 µM [inhibitor, single point]
3 | O=C(CN1C(=O)COc2ccc(S(=O)(=O)N3CCOCC3)cc21)N1CCN(c2ccc(F)cc2)CC1 | inconclusive: 7.08 µM [inhibitor, partial curve, poor fit]
4 | CC(C)(C)NC(=O)C[C@@H]1CCNC[C@@H]1Cc1cc(-c2ccc(F)cc2)on1 | inconclusive: 7.94 µM [inhibitor, partial curve, poor fit]
5 | N#CC1CCN(C(=O)C2CN(c3ccc(F)cc3)C(=O)N2)CC1 (stereo not drawn) | inactive
6 | O=C(NC1CCCCC1)N1CCCCCC1c1nc(-c2cccnc2)no1 (stereo not drawn) | inconclusive: 2.24 µM [inhibitor, single point]
7 | Cc1ccccc1S(=O)(=O)N1CCCC(CCC(=O)NCCN(C)C2CCCCC2)C1 (stereo not drawn) | inconclusive: 0.501 µM [inhibitor, full curve, poor fit]
8 | O=Cc1ccccc1-c1cc(F)cc(F)c1 | inactive
9 | COC[C@@H]1CN(C(=O)c2ccc(F)c(F)c2)C[C@H]1C(N)=O | inactive
10 | c1ccc([C@@H]2CNC[C@H]2COc2cccnc2)nc1 | inactive
11 | COc1cc(NC(=O)c2cc3c(=O)n(Cc4cccs4)ccc3nc2C)cc(OC)c1OC | inconclusive: 20 µM [inhibitor, partial curve, poor fit]
12 | Cc1nnc2n1CCC(N(C)S(=O)(=O)c1cn(C)cn1)CC2 (stereo not drawn) | inconclusive: 1.41 µM [inhibitor, full curve]
13 | CC(C)CNc1ccc2c(n1)C(C)(C(=O)Nc1ccncc1)CN(Cc1ccccc1)C2 (stereo not drawn) | active: 2.24 µM
14 | Cc1cccc(OCC(=O)NC(C)C(=O)N2CCN(c3ccccn3)CC2)c1 (stereo not drawn) | inactive
15 | CCN1CC(c2ccccc2)CC2(CCN(C(=O)c3cc[nH]c3C)CC2)C1 (stereo not drawn) | inconclusive: 12.6 µM [inhibitor, single point]
16 | O=C1CN(Cc2cccc(Cl)c2)CCN1c1ccc(Cl)nn1 | inconclusive: 8.91 µM [inhibitor, partial curve]
17 | O=C(Cc1ccccc1F)N1CC(Oc2ccc(-c3noc(-c4cccnc4)n3)cc2)C1 | inconclusive: 1.78 µM [inhibitor, full curve]
18 | Cc1ccc(CN2COc3ccc4c(-c5ccccc5)cc(=O)oc4c3C2)cc1 | active: 0.708 µM
19 | CCOCCCNC(=O)NCC12CCCC=C1NC(=O)CC2 (stereo not drawn) | inactive
20 | Cc1c(C(=O)Nc2cccc(Cl)c2)oc2ccc(S(=O)(=O)N3CCCCCC3)cc12 | inconclusive: 17.8 µM [inhibitor, single point]
21 | CN(C(=O)c1ccc(-c2nnc3ccc(NC(=O)C4CCC4)cn23)cc1)C1CCCCC1 | inconclusive: 3.98 µM [inhibitor, partial curve, poor fit]

Row | Structure (SMILES) | Potency
22 | Cc1ccc(OCC(=O)N2CCC[C@H]2c2nc(-c3ccc(C)cc3)no2)cc1 | inconclusive: 20 µM [inhibitor, single point]
23 | COc1ccccc1NC(=O)CN1C(=O)C2(SCC(=O)N2c2ccc(F)c(F)c2)c2ccccc21 (stereo not drawn) | inconclusive: 11.2 µM [inhibitor, single point]
24 | Cc1nnc(NC(=O)c2nc(SCc3ccccc3F)ncc2Cl)s1 | inactive
25 | O=C(NCc1ccccc1)C(=O)Nc1ccc2nc3n(c(=O)c2c1)CCCCC3 | inconclusive: 7.94 µM [inhibitor, partial curve, poor fit]
26 | COc1cccc([C@@H]2CCN(Cc3cc4ccccc4n(C)c3=O)C[C@H]2O)c1 | inconclusive: 11.2 µM [inhibitor, single point]
27 | COc1ccc(S(=O)(=O)N2CCC(Cc3nncn3-c3ccccc3)CC2)cc1 | inconclusive: 15.8 µM [inhibitor, single point]
28 | COC(=O)[C@H]1CN(C(C)=O)CCN1C(C)=O | inactive
29 | Cc1cc(=O)n(CC(=O)NCCc2ccc(Cl)cc2)c(N2CCc3ccccc3C2)n1 | inconclusive: 0.891 µM [inhibitor, single point]
30 | c1ccc2c3c([nH]c2c1)C1(CCNCC1)NCC3 | inconclusive: 11.2 µM [inhibitor, single point]
31 | O=C1CCN(S(=O)(=O)c2ccc3c(c2)CCC3)CCCC(c2nc(-c3cnccn3)no2)CCN1 (stereo not drawn) | inconclusive: 4.47 µM [inhibitor, full curve, poor fit]
32 | O=[S+]1([O-])NC2(CCN(CC3CCCCC3)CC2)COc2ccccc21 | inconclusive: 7.94 µM [inhibitor, single point]
33 | F[C@@H]1CN(C2CCOCC2)C[C@@H]1OCc1nc2ccccc2[nH]1 | inactive
34 | CN1[C@@H](CCC(=O)N2CCOCC2)CNC(=O)[C@H]2NCC[C@H]21 | inactive
35 | CCOC(=O)c1[nH]c(C)c(C(=O)NC(CC)Cc2ccccc2)c1C (stereo not drawn) | inconclusive: 12.6 µM [inhibitor, single point]
36 | COc1ccccc1N1CCN(C(=O)C2N(C(C)C)C(=O)C23CCCCC3)CC1 (stereo not drawn) | inconclusive: 17.8 µM [inhibitor, single point]
37 | CCN1CCN(c2ncnc3c2cnn3-c2ccc(C)c(C)c2)CC1 | inconclusive: 10 µM [inhibitor, single point]
38 | COc1ncccc1-c1nccc2c(=O)cc(N(C)C)oc12 | inactive
39 | Cc1c(Cl)cccc1NC(=O)Cn1cc(C(=O)c2cccs2)c2ccccc21 | inconclusive: 17.8 µM [inhibitor, single point]
40 | O=C(c1cc(-c2ccccc2)n[nH]1)N1CCC(N2CC3CC(C2)[C@H]2CCCC(=O)N2C3)CC1 (stereo partly drawn) | inconclusive: 17.8 µM [inhibitor, single point]
41 | CN(CCc1ccccn1)C(=O)c1ccc(N2CC3CC(C2)[C@H]2CCCC(=O)N2C3)nc1 (stereo partly drawn) | inconclusive: 20 µM [inhibitor, partial curve, poor fit]
42 | O=C(CSc1nc2ccsc2c(=O)n1Cc1ccccc1Cl)NCc1ccc(F)cc1 | inconclusive: 10 µM [inhibitor, single point]

Row | Structure (SMILES) | Potency
43 | Cc1ccc2[nH]c(=O)cc(C(=O)N3CCOC(CCCC(C)C)C3)c2c1 (stereo not drawn) | inconclusive: 5.62 µM [inhibitor, partial curve, poor fit]
44 | Cc1ccc(C)c(Cn2c(CCCNC(=O)C3CCCCC3)nc3ccccc32)c1 | inconclusive: 10 µM [inhibitor, single point]
45 | O=C(Cc1c[nH]c2ncc(-c3cccc(OC(F)(F)F)c3)cc12)NCc1cccnc1 | active: 3.98 µM
46 | COc1ccc(CNC(=O)c2cc(-c3ccc(OC)cc3)nc3n[nH]c(-c4cccc([N+](=O)[O-])c4)c23)cc1 | inactive
47 | COc1ccc(CN2CCc3c(c(=O)n4ncc(C(=O)N5CCN(c6ccc(F)cc6)CC5)c4n3C)C2)cc1 | inconclusive: 17.8 µM [inhibitor, single point]
48 | CCOc1ccccc1NC(=O)c1c(NCc2cccs2)sc2c1CCC(C)C2 (stereo not drawn) | inconclusive: 12.6 µM [inhibitor, single point]
49 | CCC(=O)N1CCc2cc(OC)c(OC)cc2C1COc1ccccc1OC (stereo not drawn) | inconclusive: 11.2 µM [inhibitor, single point]
50 | Cc1cccc(OCc2ccc(-c3nc(C#N)c(NCc4cccnc4)o3)o2)c1 | active: 7.94 µM
51 | Cc1ccc(F)c(OCC(=O)c2ccc3c(c2)N(CCCC(=O)N2CCOCC2)C(=O)CO3)c1 | inactive
52 | COc1ccc(C(=O)Nc2ccc(-c3noc([C@@H]4CCCN4CCCc4ccccc4)n3)cn2)cc1 | inconclusive: 17.8 µM [inhibitor, partial curve, poor fit]
53 | O=C(CSc1nc(-c2cccc(F)c2)[nH]c1-c1ccccc1)Nc1ccc2c(c1)OCCO2 | active: 11.2 µM
54 | COC(=O)c1ccc(C2c3c(-c4ccccc4O)n[nH]c3C(=O)N2Cc2ccncc2)cc1 (stereo not drawn) | inconclusive: 8.91 µM [inhibitor, partial curve]
55 | CCc1ccc(NC(=O)CCCc2nnc3n(CC(C)C)c(=O)c4sccc4n23)cc1 | inconclusive: 3.98 µM [inhibitor, single point]
56 | O=C(NCCc1ccccn1)c1cnc2c(c1)N([S+](=O)([O-])c1cccnc1)CCC2 | inconclusive: 31.6 µM [inhibitor, single point]
57 | O=C(Nc1c2c(nn1-c1ccc(Cl)cc1)CS(=O)(=O)C2)c1cccc(F)c1 | inconclusive: 17.8 µM [inhibitor, single point]
58 | CC(C)CN(CC(C)C)S(=O)(=O)c1ccc(C(=O)Nc2sc3c(c2C(N)=O)CC(C)(C)NC3(C)C)cc1 | inconclusive: 17.8 µM [inhibitor, single point]
59 | CC1=C(C(=O)OC(C)(C)C)C(c2ccc(Cl)cc2)N2C(CC(=O)N3CCCC3)=CSC2=N1 (stereo not drawn) | inconclusive: 1.58 µM [inhibitor, partial curve, poor fit]
60 | Cc1cnc(C(=O)N2CCC3(CC2)CC(CO)N(C(=O)c2ccccc2)C3)cn1 (stereo not drawn) | inactive
61 | CC(C)CN[C@H]1[C@H](O)[C@@H](N2CCC(Cc3ccccc3)CC2)[C@@H]2OC[C@H]1O2 | active: 3.98 µM
62 | CN(C)c1ccc(C(=O)N2CCCC(n3cc(-c4nc(C5CC5)no4)nn3)C2)cc1 (stereo not drawn) | inconclusive: 3.98 µM [inhibitor, partial curve, poor fit]
63 | O=C(CSc1nc(Nc2ccc(F)cc2)c2ccccc2n1)c1ccc(F)cc1 | inconclusive: 12.6 µM [inhibitor, single point]
